Over roughly 2,900 compounds, “NF-kB SEAP reporter activity, fold change vs agonist alone” has its median near 0.99; the highest 2% begin near 2.6. Some of the results follow.
How the values were obtained:
[1] = system: RAW-Dual; assay: NF-kB SEAP reporter activity, fold change vs agonist alone; higher = enhanced NF-kB activity
Method in brief: (§1)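 RAW-Dual macrophages (50,000 cells/well in DMEM, 384-well plates) received 50 nL of library stock by pin tool, then a PRR agonist 1 h later, and were kept at 37 °C, 5% CO2. After 20 hours, supernatant was read for IRF by QuantiLuc luminescence and for NF-κB by QuantiBlue absorbance at 620 nm. Reporter activity is fold change over agonist-alone wells. Cytotoxic wells had IncuCyte confluency below 70% of agonist controls in both mask sets.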

[2] = system: RAW-Dual; assay: NF-kB SEAP reporter activity, fold change vs agonist alone; cytotoxicity flag (confluency mask): not cytotoxic; higher = enhanced NF-kB activity
Method in brief: as §1

[3] = system: RAW-Dual; assay: NF-kB SEAP reporter activity, fold change vs agonist alone; cytotoxicity flag (confluency mask): cytotoxic (confluency <70% of control); higher = enhanced NF-kB activity
Method in brief: as §1

[4] = library stock concentration (final ~1000-fold dilution): 10 mM, cytotoxicity flag (confluency mask): not cytotoxic, agonist: Imiquimod (TLR7) […]
[5] = library stock concentration (final ~1000-fold dilution): 10 mM, cytotoxicity flag (confluency mask): not cytotoxic, agonist: MPLA (TLR4) […]
[6] = agonist: ODN 1826 (TLR9) 0.5 ug/mL
[7] = agonist: Pam2CSK4 (TLR2/6) 0.1 ug/mL
[8] = agonist: Pam3CSK4 (TLR2/1) 0.1 ug/mL

Question: For `Cc1cc(Nc2cc(N3CCN(C)CC3)nc(Sc3ccc(NC(=O)C4CC4)cc3)n2)n[nH]1`, which “NF-kB SEAP reporter activity” value [1, 4] is on record?
Answer: The value was 0.255.

Question: And the “NF-kB SEAP reporter activity” value [1, 5]?
Answer: The value was 0.315.

Question: For `Cc1cc(Nc2cc(N3CCN(C)CC3)nc(Sc3ccc(NC(=O)C4CC4)cc3)n2)n[nH]1` (library stock concentration (final ~1000-fold dilution): 10 mM), which “NF-kB SEAP reporter activity” value ([2]; agonist: LPS (TLR4) 0.1 ug/mL) is on record?
Answer: The value was 0.3.

Question: And the “NF-kB SEAP reporter activity” value [2, 6]?
Answer: Its value is 0.204.

Question: And the “NF-kB SEAP reporter activity” value [2, 7]?
Answer: Its value is 0.0965.

Question: What about the “NF-kB SEAP reporter activity” value [2, 8] of the same compound?
Answer: The value was 0.226.

Question: With `O=C1c2ccc(O)cc2C(=O)c2ccc(O)cc21` (library stock concentration (final ~1000-fold dilution): 10 mM) as the compound, how does the “NF-kB SEAP reporter activity” value ([2]; agonist: LPS (TLR4) 0.1 ug/mL) read?
Answer: The value was 1.38.

Question: And the “NF-kB SEAP reporter activity” value [2, 6]?
Answer: Its value is 1.04.

Question: And the “NF-kB SEAP reporter activity” value [2, 7]?
Answer: The value was 1.32.

Question: And the “NF-kB SEAP reporter activity” value [2, 8]?
Answer: Its value is 1.16.

Question: `O=C1c2ccc(O)cc2C(=O)c2ccc(O)cc21` was tested. Which “NF-kB SEAP reporter activity” value [1, 5] did it give?
Answer: Its value is 1.26.

Question: `CC(C)c1c2cc(-c3ccnc(NC4CCC(NC5CCOCC5)CC4)n3)ccc2nn1C` (stereo not given) was tested. Which “NF-kB SEAP reporter activity” value ([1]; library stock concentration (final ~1000-fold dilution): 10 mM, cytotoxicity flag (confluency mask): cytotoxic (confluency <70% of control), agonist: Imiquimod (TLR7) […]) did it give?
Answer: Its value is 0.216.

Question: What about the “NF-kB SEAP reporter activity” value ([1]; library stock concentration (final ~1000-fold dilution): 10 mM, cytotoxicity flag (confluency mask): cytotoxic (confluency <70% of control), agonist: MPLA (TLR4) […]) of the same compound?
Answer: The value was 0.235.

Question: What does the source list for `CC(C)c1c2cc(-c3ccnc(NC4CCC(NC5CCOCC5)CC4)n3)ccc2nn1C` (stereo not given) (library stock concentration (final ~1000-fold dilution): 10 mM)?
Answer: NF-kB SEAP reporter activity ([3]; agonist: LPS (TLR4) 0.1 ug/mL): 0.18; NF-kB SEAP reporter activity [3, 6]: 0.223; NF-kB SEAP reporter activity [3, 7]: 0.0677; NF-kB SEAP reporter activity [3, 8]: 0.139

Question: `CC(=O)Nc1nnc(S(N)(=O)=O)s1` (library stock concentration (final ~1000-fold dilution): 10 mM) was tested. Which “NF-kB SEAP reporter activity” value ([2]; agonist: LPS (TLR4) 0.1 ug/mL) did it give?
Answer: The value was 1.1.

Question: And the “NF-kB SEAP reporter activity” value [2, 6]?
Answer: The value was 1.07.

Question: And the “NF-kB SEAP reporter activity” value [2, 7]?
Answer: The value was 1.

Question: What about the “NF-kB SEAP reporter activity” value [2, 8] of the same compound?
Answer: Its value is 1.14.

Question: For `CC(=O)Nc1nnc(S(N)(=O)=O)s1`, which “NF-kB SEAP reporter activity” value [1, 4] is on record?
Answer: Its value is 0.977.

Question: And the “NF-kB SEAP reporter activity” value [1, 5]?
Answer: The value was 1.03.

Question: `Nc1nc(OCc2cc(Br)cs2)c2[nH]cnc2n1` was tested. Which “NF-kB SEAP reporter activity” value [1, 4] did it give?
Answer: Its value is 0.918.

Question: What about the “NF-kB SEAP reporter activity” value [1, 5] of the same compound?
Answer: Its value is 1.25.

Question: For `Nc1nc(OCc2cc(Br)cs2)c2[nH]cnc2n1` (library stock concentration (final ~1000-fold dilution): 10 mM), which “NF-kB SEAP reporter activity” value ([2]; agonist: LPS (TLR4) 0.1 ug/mL) is on record?
Answer: The value was 1.44.

Question: And the “NF-kB SEAP reporter activity” value [2, 6]?
Answer: Its value is 1.14.

Question: And the “NF-kB SEAP reporter activity” value [2, 7]?
Answer: Its value is 0.645.

Question: What about the “NF-kB SEAP reporter activity” value [2, 8] of the same compound?
Answer: Its value is 0.628.

Question: `N#Cc1ccc2ncnc(NCCc3ccccc3)c2c1` (library stock concentration (final ~1000-fold dilution): 10 mM) was tested. Which “NF-kB SEAP reporter activity” value ([2]; agonist: LPS (TLR4) 0.1 ug/mL) did it give?
Answer: Its value is 2.76.

Question: How did the “NF-kB SEAP reporter activity” value [1, 4] turn out when `O=[N+]([O-])c1ccc(Nc2nc(N3CCOCC3)nc(N3CCOCC3)n2)cc1` was run?
Answer: The value was 1.09.

Question: What about the “NF-kB SEAP reporter activity” value [1, 5] of the same compound?
Answer: The value was 1.35.

Question: What does the source list for `O=[N+]([O-])c1ccc(Nc2nc(N3CCOCC3)nc(N3CCOCC3)n2)cc1` (library stock concentration (final ~1000-fold dilution): 10 mM)?
Answer: NF-kB SEAP reporter activity ([2]; agonist: LPS (TLR4) 0.1 ug/mL): 1.17; NF-kB SEAP reporter activity [2, 6]: 0.863; NF-kB SEAP reporter activity [2, 7]: 0.888; NF-kB SEAP reporter activity [2, 8]: 0.701

Question: What does the source list for `O=C1O[C@H]([C@@H](O)CO)C([O-])=C1O.[Na+]` (library stock concentration (final ~1000-fold dilution): 10 mM water)?
Answer: NF-kB SEAP reporter activity ([2]; agonist: LPS (TLR4) 0.1 ug/mL): 1.18; NF-kB SEAP reporter activity [2, 6]: 1.33; NF-kB SEAP reporter activity [2, 7]: 1.16; NF-kB SEAP reporter activity [2, 8]: 1.22

Question: How did the “NF-kB SEAP reporter activity” value ([1]; library stock concentration (final ~1000-fold dilution): 10 mM water, cytotoxicity flag (confluency mask): not cytotoxic, agonist: Imiquimod (TLR7) […]) turn out when `O=C1O[C@H]([C@@H](O)CO)C([O-])=C1O.[Na+]` was run?
Answer: Its value is 0.939.

Question: And the “NF-kB SEAP reporter activity” value ([1]; library stock concentration (final ~1000-fold dilution): 10 mM water, cytotoxicity flag (confluency mask): not cytotoxic, agonist: MPLA (TLR4) […])?
Answer: Its value is 1.05.

Question: How did the “NF-kB SEAP reporter activity” value ([1]; library stock concentration (final ~1000-fold dilution): 2 mM, cytotoxicity flag (confluency mask): not cytotoxic, agonist: Imiquimod (TLR7) […]) turn out when `Cc1ccc(S(=O)(=O)Nc2nc3ccccc3nc2Nc2ccc3nsnc3c2)cc1` was run?
Answer: The value was 0.936.

Question: And the “NF-kB SEAP reporter activity” value ([1]; library stock concentration (final ~1000-fold dilution): 2 mM, cytotoxicity flag (confluency mask): not cytotoxic, agonist: MPLA (TLR4) […])?
Answer: Its value is 1.02.

Question: With `Cc1ccc(S(=O)(=O)Nc2nc3ccccc3nc2Nc2ccc3nsnc3c2)cc1` (library stock concentration (final ~1000-fold dilution): 2 mM) as the compound, how does the “NF-kB SEAP reporter activity” value ([2]; agonist: LPS (TLR4) 0.1 ug/mL) read?
Answer: The value was 1.3.

Question: And the “NF-kB SEAP reporter activity” value [2, 6]?
Answer: Its value is 0.936.

Question: And the “NF-kB SEAP reporter activity” value [2, 7]?
Answer: Its value is 0.709.

Question: And the “NF-kB SEAP reporter activity” value [2, 8]?
Answer: The value was 1.08.

Question: `Cn1c(=O)cc(N2CCCC(N)C2)n(Cc2cc(F)ccc2C#N)c1=O.O=C(O)CCC(=O)O` (stereo not given) was tested. Which “NF-kB SEAP reporter activity” value [1, 5] did it give?
Answer: Its value is 1.09.

Question: Which results are given for `Cn1c(=O)cc(N2CCCC(N)C2)n(Cc2cc(F)ccc2C#N)c1=O.O=C(O)CCC(=O)O` (stereo not given) (library stock concentration (final ~1000-fold dilution): 10 mM)?
Answer: NF-kB SEAP reporter activity ([2]; agonist: LPS (TLR4) 0.1 ug/mL): 1.1; NF-kB SEAP reporter activity [2, 6]: 0.953; NF-kB SEAP reporter activity [2, 7]: 1.04; NF-kB SEAP reporter activity [2, 8]: 1.06

Question: Which results are given for `CC(C)(C)c1cc(O)c(C(C)(C)C)cc1O` (library stock concentration (final ~1000-fold dilution): 10 mM)?
Answer: NF-kB SEAP reporter activity ([2]; agonist: LPS (TLR4) 0.1 ug/mL): 0.802; NF-kB SEAP reporter activity [2, 6]: 0.415; NF-kB SEAP reporter activity [2, 7]: 0.179; NF-kB SEAP reporter activity [2, 8]: 0.278

Question: `CC(C)(C)c1cc(O)c(C(C)(C)C)cc1O` was tested. Which “NF-kB SEAP reporter activity” value [1, 4] did it give?
Answer: The value was 1.42.

Question: What about the “NF-kB SEAP reporter activity” value [1, 5] of the same compound?
Answer: The value was 1.37.

Question: `CC(C=CC1=C(C)CCCC1(C)C)=CC=CC(C)=CC(=O)O` (library stock concentration (final ~1000-fold dilution): 1 mM) was tested. Which “NF-kB SEAP reporter activity” value ([2]; agonist: LPS (TLR4) 0.1 ug/mL) did it give?
Answer: The value was 0.67.

Question: What about the “NF-kB SEAP reporter activity” value [2, 6] of the same compound?
Answer: Its value is 1.25.

Question: And the “NF-kB SEAP reporter activity” value [2, 7]?
Answer: The value was 0.689.

Question: What about the “NF-kB SEAP reporter activity” value [2, 8] of the same compound?
Answer: The value was 0.773.

Question: Which results are given for `CC(C=CC1=C(C)CCCC1(C)C)=CC=CC(C)=CC(=O)O`?
Answer: NF-kB SEAP reporter activity ([1]; library stock concentration (final ~1000-fold dilution): 1 mM, cytotoxicity flag (confluency mask): not cytotoxic, agonist: Imiquimod (TLR7) […]): 1.41; NF-kB SEAP reporter activity ([1]; library stock concentration (final ~1000-fold dilution): 1 mM, cytotoxicity flag (confluency mask): not cytotoxic, agonist: MPLA (TLR4) […]): 0.816

Question: `O=C(O)c1ccnc(C(=O)O)c1` was tested. Which “NF-kB SEAP reporter activity” value [1, 4] did it give?
Answer: The value was 0.985.

Question: What about the “NF-kB SEAP reporter activity” value [1, 5] of the same compound?
Answer: The value was 1.07.

Question: For `O=C(O)c1ccnc(C(=O)O)c1` (library stock concentration (final ~1000-fold dilution): 10 mM), which “NF-kB SEAP reporter activity” value ([2]; agonist: LPS (TLR4) 0.1 ug/mL) is on record?
Answer: Its value is 1.06.

Question: And the “NF-kB SEAP reporter activity” value [2, 6]?
Answer: The value was 0.964.

Question: What about the “NF-kB SEAP reporter activity” value [2, 7] of the same compound?
Answer: The value was 1.02.

Question: What about the “NF-kB SEAP reporter activity” value [2, 8] of the same compound?
Answer: Its value is 0.992.

Question: Which “NF-kB SEAP reporter activity” value ([2]; agonist: LPS (TLR4) 0.1 ug/mL) does the source give for `CC(=O)NC(CC(=O)O)C(=O)NC(CCC(=O)O)C(=O)NC(C(=O)NC(C=O)CC(=O)O)C(C)C` (stereo not given) (library stock concentration (final ~1000-fold dilution): 10 mM water) here?
Answer: Its value is 1.18.

Question: What about the “NF-kB SEAP reporter activity” value [2, 6] of the same compound?
Answer: The value was 1.15.

Question: And the “NF-kB SEAP reporter activity” value [2, 7]?
Answer: Its value is 1.28.

Question: What about the “NF-kB SEAP reporter activity” value [2, 8] of the same compound?
Answer: The value was 1.08.
